Measured values taken from PubChem BioAssay AID1814 (Broad Institute, 2009).
The whole screen tested about 300,000 compounds, of which about 22,000 (7.3%) were called active. This list was built around the results that the source calls inconclusive (neither active nor inactive); the mix of calls is not that of the screen. Cut-off read from the data, not from the text of the source: active = activity score below about -60%; inconclusive = mostly about -28% to -61%; inactive = positive scores.

Test: Activators via SNCA 5'UTR binding, MLPCN (AID 1814)
Conditions: alpha-synuclein 5'UTR reporter, activators screen; active compounds read low; tested at 7.5 µM

| SMILES | activity score |
| --- | --- |
| O=C(NC1CCCCC1)C(=S)NC1CCCCC1 | active: -106% |
| CC(=O)/C(N=Nc1ccc(SC(F)F)cc1)=C(\C)O | inconclusive: -55.2% |
| O=Cc1ccc(O)c2ncccc12 | inactive: 62.8% |
| Cc1cnc(NC(=O)c2nn(C)cc2[N+](=O)[O-])s1 | inconclusive: -43.4% |
| COc1ccc2[nH]c3c(=O)n(Cc4ccc(C(=O)N5CCCC5)cc4)c(=S)[nH]c3c2c1 | inconclusive: -51.9% |
| CCCC1=[N+](CC(=O)c2ccc(C)cc2)CCn2cccc21 | inconclusive: -50.8% |
| Brc1ccc(C2=CSC3=NCCN23)cc1 | inconclusive: -47.3% |
| COc1cc(NC(=S)Nc2ccccn2)cc(OC)c1 | inconclusive: -60% |
| O=C(/C(N=Nc1cccc(C(F)(F)F)c1)=C(/O)c1cccs1)C(F)(F)F | active: -62.3% |
| Cc1ccc(-n2cc(CN3CCN(Cc4nccn4C)CC3)c(-c3cccc(C)c3)n2)cc1 | inconclusive: -42.9% |
| Cc1ccc(Cn2nnnc2CN2CCC(c3nc4ccc(Cl)cc4[nH]3)CC2)cc1 | inactive: 78.3% |
| COc1ccccc1N1CCN(/N=C/c2cccc(O)c2)CC1 | active: -111% |
| CCc1ccc(OCc2cccc(C(=O)N/N=C\c3cnn(C)c3C)c2)cc1 | inconclusive: -51.2% |
| COc1cccc(C(=O)Nc2cnn(C(C)C)c2)c1 | active: -114% |
| CC1Oc2cc3oc4c(O)c(O)ccc4c(=O)c3c(O)c2C1(C)C (stereo not given) | active: -150% |
| COc1ccc(C#Cc2ccc3c(=O)c4ccccc4n(C)c3c2)cc1 | inconclusive: -53.1% |
| COc1ccc2[nH]c(C(=O)NCCCN3CCCC3=O)c(C)c2c1 | inconclusive: -47.9% |
| c1ccc2c(c1)CSc1ccccc1N2 | inactive: 104% |
| O=C(CN1C(=O)c2ccccc2S1(=O)=O)c1ccc(F)cc1 | inactive: 91.6% |
| COC(=O)c1ccc2c(c1)C(C)(C)C(/C=C/c1ccc(O)cc1)=[N+]2C | inactive: 119% |
| Cc1cccc(-n2nc(CC#N)c(C#N)c2N)c1 | inconclusive: -57.2% |
| COc1ccc(-n2nc(C(=O)NCC(=O)N3CCN(c4ccccc4F)CC3)c3ccccc3c2=O)cc1OC | inconclusive: -47.6% |
| Cc1ccc2c(=O)c(C(=O)NCc3cccs3)c[nH]c2c1 | inconclusive: -56.6% |
| CC(C)(C)c1ccc(C(=O)N2CCCCCC2=O)cc1 | inactive: 90.7% |

| SMILES | activity score |
| --- | --- |
| Cc1nn(-c2ccccc2Cl)c(Cl)c1/C=N/Nc1nc2ccccc2s1 | inactive: 68.6% |
| Cc1conc1NC(c1cccs1)c1ccc2cccnc2c1O (stereo not given) | inactive: 66.3% |
| Cn1c(CCc2ccc(N)cc2)nc2ccccc21 | inconclusive: -47.8% |
| C/C(=N\NC(=O)c1ccco1)c1cc(Cl)sc1Cl | inconclusive: -51.8% |
| O=C1N/C(=N\N=C\c2cccs2)SC1Cc1ccc(Cl)cc1 (stereo not given) | inconclusive: -57.3% |
| c1ccc2c(c1)CC(N1CCCCC1)c1ccccc1S2 (stereo not given) | inactive: 89.8% |
| O=C(Nc1ccc(Cl)c(Cl)c1)Nc1ccc(N2CCCC2)c(S(=O)(=O)Nc2ccccc2Cl)c1 | inactive: 95.2% |
| Nc1c(C(=O)Nc2ccc3c(c2)OCCO3)nnn1CCc1ccccc1 | active: -126% |
| O=C(Nc1ccccc1)Nc1snnc1C(=O)Nc1cccc(O)c1 | inconclusive: -43.4% |
| O=C(Cc1cccs1)N/N=C/c1ccc(OCc2ccccc2)cc1 | inconclusive: -43.2% |
| CCOC(=O)c1c(C)c(C(=O)Nc2ccccc2)c(C)n1CC | inconclusive: -23.4% |
| CNC(=O)C(=O)Nc1nc(C23CC4CC(CC(C4)C2)C3)cs1 | active: -129% |
| COC(=O)c1ccc(COc2ccccc2/C=C(\C#N)C(=O)NC(C)C)cc1 | inconclusive: -41% |
| O=C(NNc1nc(-c2ccc(F)cc2)cs1)c1ccccc1 | inactive: 90.4% |
| CCC(=O)Nc1nc2ccccc2n1Cc1ccccc1Cl | inactive: 72.3% |
| Cc1ccc(NS(=O)(=O)c2cccc(C(=O)O)c2)cc1S(=O)(=O)N1CCOCC1 | inconclusive: -51.5% |
| CCCCCCn1c(SCCC)nc2c1c(=O)[nH]c(=O)n2C | inactive: 46.8% |
| O=C1/C(=C\c2ccco2)SC(=S)N1c1ccccc1 | inconclusive: -49.6% |
| CCOc1cc(CNc2ccc(N3CCCC3)cc2)cc(Cl)c1OC | active: -67% |
| COc1ccc(C(=O)CN2C(=O)c3ccccc3S2(=O)=O)cc1 | inactive: 101% |
| Cc1ccc2cc(C3C(C#N)=C(N)Oc4c3ccc3cccnc43)c(=O)[nH]c2c1 (stereo not given) | inactive: 61% |
| Cc1nc2ccccc2c(=O)n1/N=C/c1ccc(N(C)C)cc1 | inconclusive: -47.2% |
| CCOC(=O)c1[nH]cnc1C(=O)Nc1ccc(C)cc1 | inconclusive: -57.5% |
| CC(C)Oc1ncnc2c1[nH]c1ccccc12 | inconclusive: -35.2% |

| SMILES | activity score |
| --- | --- |
| CCOc1ccc(-n2cnc3sc4c(c3c2=O)CCCC4)cc1 | inconclusive: -48.5% |
| Cc1nc(SCC(=O)N2CCc3ccccc32)n[nH]1 | active: -67.9% |
| COc1cc(SC)ccc1C(=O)Nc1ccc(Cl)cn1 | inactive: 99.7% |
| Cc1ccc(C(c2sc3ncnn3c2O)N2CCCCC2)cc1 (stereo not given) | inconclusive: -47.2% |
| Cc1cccc2cc(/C=C/C(=O)c3ccco3)c(Cl)nc12 | inconclusive: -59.9% |
| COc1cccc(C(=O)Nc2nnc(-c3cccs3)o2)c1 | inconclusive: -60.7% |
| O=C1CCCC(O)=C1C=NCCc1ccccc1 | inconclusive: -30.7% |
| Cn1nc(C(=O)Nc2ccc(S(=O)(=O)NCc3ccco3)cc2)c2ccccc2c1=O | active: -96.4% |
| O=C1/C(=C/c2ccc(O)c(O)c2)SC(=S)N1Nc1ccccc1 | active: -146% |
| CC(C)(C)n1nc(-c2ccc(F)cc2)c2c(N)ncnc21 | inactive: 70.9% |
| CCOC(=O)N1CCc2c(sc(NC(=O)C3=COCCO3)c2C(N)=O)C1 | inconclusive: -59.4% |
| O=C(Nc1cc(C(F)(F)F)ccc1N1CCOCC1)c1ccc2ccccc2n1 | active: -80.2% |
| Cc1cc(NC(=O)COC(=O)c2cccc(OCc3ccccc3)c2)no1 | inconclusive: -33.1% |
| CC(C)(C)c1ccc(-c2noc(CCC(N)=O)n2)cc1 | inactive: 90.8% |
| CCOC(=O)C(C)Sc1nc(-c2cccs2)ccc1C#N (stereo not given) | inconclusive: -49.9% |
| O=C(CCC1CCCN(C(=O)c2cc3ccccc3o2)C1)NCc1ccc(F)c(F)c1 (stereo not given) | inconclusive: -60.7% |
| S=C(Nc1ccc2c(c1)OCO2)N1CCN(Cc2ccco2)CC1 | inconclusive: -58.2% |
| Clc1ccc(Cc2nc(-c3cccnc3)no2)cc1 | inconclusive: -36% |
| O=C(CCc1ccncc1)NC1CCCc2c1cnn2-c1cc(F)cc(F)c1 (stereo not given) | inactive: 78.7% |
| Cc1ccc2nc(NC(=O)c3ccccn3)sc2c1 | inactive: 111% |
| Cc1cc(C(=O)N/N=C/c2cc(N=Nc3ccccc3)ccc2O)n[nH]1 | inactive: 65.5% |
| Cc1nc2c(ccc3nc(NC(=O)Cc4ccccc4)sc32)s1 | inconclusive: -60.9% |
| O=C(NCCc1ccccc1)c1nc(-c2cccs2)no1 | inconclusive: -61.1% |
| COc1ccc(-c2csc(COC(=O)C(C)(C)C)n2)cc1 | inconclusive: -60.1% |

| SMILES | activity score |
| --- | --- |
| CCCOc1ccccc1OCC(=O)Nc1ccc(S(=O)(=O)N2CCCCC2)cc1 | inconclusive: -64.6% |
| COc1cc(/C=N/Nc2nc3ccccc3[nH]2)cc(Br)c1OCC(=O)N(C)C | inconclusive: -40.9% |
| Cc1csc(SCCN2C(=O)c3ccccc3C2=O)n1 | inconclusive: -55.4% |
| CN(Cc1cccs1)C(=O)CNC(=O)c1ccco1 | inconclusive: -44.5% |
| Cc1nn(-c2nc(-c3ccco3)cc(C(F)(F)F)n2)c(C)c1Cl | inconclusive: -47.8% |
| O=c1nc(N/N=C/c2c[nH]c3ccccc23)cn[nH]1 | inconclusive: -61.3% |
| O=C(N/N=C/c1cn(Cc2cccc(F)c2)c2ccccc12)c1cc(O)cc(O)c1 | inactive: 59.2% |
| C=CCn1c(SCc2c(C)noc2C)nc2ccccc2c1=O | inactive: 79.7% |
| COc1cc2[nH]c(=S)nc(NCc3ccccc3)c2cc1OC | inconclusive: -57.4% |
| Brc1ccc(-c2ccc(/C=N/Nc3nc(N4CCOCC4)nc(N4CCOCC4)n3)o2)cc1 | inconclusive: -51.2% |
| O=C(c1ccc(Cl)cc1)c1coc2ccc(O)cc12 | active: -128% |
| CCOCc1cn(CC(=O)c2ccc([N+](=O)[O-])cc2)c(C)nc1=N | inconclusive: -43.1% |
| O=C(c1ccc(Cl)cc1)c1cc([N+](=O)[O-])ccc1N1CCOCC1 | inactive: 118% |
| Cc1ccc(C2=NN(C(=O)CCCC(=O)O)C(c3ccco3)C2)cc1 (stereo not given) | inconclusive: -61.4% |
| CCOc1ccc(OCc2cccc(C(=O)N3CCOCC3)c2)cc1 | inactive: 102% |
| Cc1c(C)c2ccc(OCC(=O)Nc3nccs3)cc2oc1=O | inactive: 66.2% |
| COc1ccccc1NC(=S)NNC(=O)c1cc(C)nn1C | inconclusive: -55.5% |
| CCc1cc(/C(Cc2ccccn2)=N\Nc2ccccc2)c(O)cc1O | inconclusive: -61.1% |
| Cn1c(=O)n(C)c2cc(NC(=O)c3ccc(F)cc3)ccc21 | inconclusive: -53.7% |
| COC(=O)c1ccc(COC(=O)c2cccn2C)o1 | inconclusive: -49.7% |
| CC(=O)Oc1ccccc1/C=C/c1nc2ccccc2c(=O)o1 | inactive: 65.6% |
| CCS(=O)(=O)N1Cc2ccccc2CC1C(=O)Nc1ccc(OC)cc1 (stereo not given) | inconclusive: -49% |
| O=C(CN1C(=O)c2ccccc2S1(=O)=O)c1ccc(O)c(O)c1 | inactive: 63.5% |
